From PubChem BioAssay AID2546 (National Center for Advancing Translational Sciences (NCATS), 2010)
Screen size: about 310,000 compounds; about 11,000 (3.5%) were called active. The shares of active, inactive and inconclusive entries below differ from those in the screen. The call rests on the fitted dose curve; in most records, active means well fitted inhibition curve with a large enough effect; inconclusive means small, poorly fitted or top-dose-only effect, or effect the other way; inactive means flat fitted curve, though single readings scatter. No potency is given beside an inconclusive call; the fits are too rough.

Assay: VP16 counterscreen qHTS for inhibitors of ROR gamma transcriptional activity;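 further: Gal4-VP16 expression switched on by copper sulfate through the metallothionein promoter; nearly all actives have a fitted effect of over 50% in size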
Settings: Drosophila S2 Gal4-VP16 UAS-luciferase, luminescence, 20 h; series mostly up to 53.6 µM
Potency means the concentration at half of the fitted maximal effect; tags describe the fitted curve by direction and shape.

With `COCCSc1nnc(NC(=O)C2CC(=O)N(CCc3ccc(F)cc3)C2)s1` (stereo not given) as the molecule, how does the Potency read?
The Potency was “inactive”.

Which Potency does the source give for `COCCn1c(-c2cccc([N+](=O)[O-])c2)nc2c1c(=O)[nH]c(=O)n2Cc1ccccc1` here?
The Potency was “inactive”.

With `CC(C)C[C@@H](CC(=O)N[C@@H](CCC(=O)O)CC(=O)O)NC(=O)[C@@H]1CNCC[C@H]1NC(=O)C[C@H](CCCN)NC(=O)C[C@H](CO)NC(=O)[C@@H]1CNCC[C@H]1N` as the molecule, how does the Potency read?
The Potency was “inactive”.

For `CC(C)(C)NC(=O)CSc1nc(O)cc(=O)[nH]1`, which Potency is on record?
Its Potency is inconclusive [activator, single point].

For `FC(F)(F)c1nc2ccccc2nc1N/N=C\c1ccccc1`, which Potency is on record?
Its Potency is active: 12.6 µM.

With `CNC(=O)c1cc(Oc2ccc(NC(=O)Nc3ccc(Cl)c(C(F)(F)F)c3)cc2)ccn1` as the molecule, how does the Potency read?
Its Potency is active: 8.91 µM.

For `CCN(CC)S(=O)(=O)c1ccc(C(=O)NC(=S)N(CCO)Cc2ccccc2)cc1`, which Potency is on record?
Its Potency is active: 3.16 µM.

For `O=c1[nH]c(C2C3CC4CC(C3)CC2C4)nc2ccccc12` (stereo not given), which Potency is on record?
Its Potency is inconclusive [activator, single point].

Which Potency does the source give for `C[C@H](NC(=O)c1nc[nH]c1C(=O)NCCCCCNC(=O)OC(C)(C)C)C(=O)OCc1ccccc1` here?
The Potency was inconclusive [inhibitor, single point].

With `CCN(CC)S(=O)(=O)c1ccc(N2CCOCC2)c(NC(=O)Cc2ccc(Cl)cc2)c1` as the molecule, how does the Potency read?
Its Potency is “inactive”.

For `O=C(/C=C/c1cccc([N+](=O)[O-])c1)Nc1ccccn1`, which Potency is on record?
Its Potency is inconclusive [activator, full curve, poor fit].

Which Potency does the source give for `CN(C(=O)c1ccc(Br)o1)C1CCCCC1` here?
The Potency was inconclusive [activator, partial curve].

For `O=C(CCc1ccccc1)NC(=S)Nc1cc(C(F)(F)F)ccc1N1CCOCC1`, which Potency is on record?
Its Potency is inconclusive [inhibitor, single point].

Which Potency does the source give for `O=C(CSc1ncnc2c1nnn2Cc1ccc(F)cc1)NCC1CCCO1` (stereo not given) here?
The Potency was inconclusive [inhibitor, single point].

With `CCOc1cc2[nH]c(=S)n(C(C)C)c(=O)c2cc1OCC` as the molecule, how does the Potency read?
Its Potency is active: 7.08 µM.

With `COc1ccccc1C(=O)NC(=S)Nc1ccccc1N1CCCC1` as the molecule, how does the Potency read?
The Potency was inconclusive [inhibitor, single point].

With `S=C(Nc1ccc(Oc2ccccc2)cc1)N1CCN(c2ccccn2)CC1` as the molecule, how does the Potency read?
The Potency was inconclusive [inhibitor, single point].

Which Potency does the source give for `CCOC(=O)C1CCN(Cc2c(F)cccc2Cl)CC1` here?
Its Potency is “inactive”.

With `CS(=O)(=O)c1ccccc1-c1nnc(NC(=O)Cc2ccccc2)o1` as the molecule, how does the Potency read?
The Potency was inconclusive [inhibitor, single point].

Which Potency does the source give for `CC(NC(=O)c1ccccc1)c1ccc(F)cc1` (stereo not given) here?
The Potency was inconclusive [activator, single point].

For `COc1ccccc1-c1cc(C(=O)Nc2sc3c(c2C#N)CCC(C)C3)c2ccccc2n1` (stereo not given), which Potency is on record?
The Potency was “inactive”.

For `Cc1ccc(NC(=S)N(CCN(C)C)C(C)c2ccco2)cc1Cl` (stereo not given), which Potency is on record?
The Potency was inconclusive [inhibitor, single point].

With `COc1ccccc1-c1cc(C(F)(F)F)nc(S(=O)(=O)CCCC(=O)Nc2cc(C)on2)n1` as the molecule, how does the Potency read?
Its Potency is active: 7.94 µM.

Which Potency does the source give for `COC(=O)C1=CN(CCOC23CC4CC(CC(C4)C2)C3)C=C(C(=O)OC)C1c1ccsc1` here?
Its Potency is inconclusive [inhibitor, single point].

Which Potency does the source give for `CC1CCC2(CC1)OCC1(CCC3(COC4(CCC(C)CC4)OC3)C1=O)CO2` (stereo not given) here?
The Potency was “inactive”.

Which Potency does the source give for `O=C(CNC(=O)Cn1ccc2ccccc2c1=O)NCCCN1CCN(c2cccc(Cl)c2)CC1` here?
Its Potency is inconclusive [inhibitor, partial curve, poor fit].

With `CC(C)c1ccc(OCC(=O)N(Cc2ccccc2)c2ccccn2)cc1` as the molecule, how does the Potency read?
Its Potency is inconclusive [inhibitor, partial curve].

For `CCc1nc(N2CCC(C)CC2)c2oc3ccccc3c2n1`, which Potency is on record?
Its Potency is inconclusive [inhibitor, single point].

With `COc1ccc(-c2cc3nc(C)cc(N4CC(C)CC(C)C4)n3n2)cc1` (stereo not given) as the molecule, how does the Potency read?
The Potency was inconclusive [inhibitor, single point].

For `CN(C)C(=O)N1CCCC(C(=O)NCc2ccccc2)C1` (stereo not given), which Potency is on record?
The Potency was “inactive”.

For `COC(=O)c1ccc(COc2ccccc2/C=C(\C#N)C(=O)Nc2c(C)cc(C)cc2C)cc1`, which Potency is on record?
The Potency was inconclusive [inhibitor, single point].

With `C=CCSC1=NNC(c2ccc(C(C)(C)C)cc2)=NN1` as the molecule, how does the Potency read?
Its Potency is inconclusive [activator, single point].

Which Potency does the source give for `S=c1[nH]nc(COc2ccc(Cl)cc2)n1-c1ccccc1` here?
The Potency was active: 3.16 µM.

For `O=C(CNc1ccccc1)N/N=C/c1c(O)ccc2ccccc12`, which Potency is on record?
Its Potency is active: 2.82 µM.

Which Potency does the source give for `Cc1sc2nc(CN3CCOCC3)nc(NCCc3ccccc3)c2c1C` here?
Its Potency is inconclusive [inhibitor, single point].

With `CCOC(=O)N1CCN(C(=S)NC(=O)/C=C/c2ccc(C)cc2)CC1` as the molecule, how does the Potency read?
The Potency was active: 5.62 µM.

With `COc1ccc(/C=C/C(=O)c2cc(Br)ccc2OC(=O)c2ccco2)cc1OC` as the molecule, how does the Potency read?
Its Potency is inconclusive [inhibitor, single point].

Which Potency does the source give for `CS(=O)(=O)c1ccc(-c2cccc(NC(=O)COc3ccc(Cl)cc3)c2)nn1` here?
The Potency was inconclusive [inhibitor, single point].

Which Potency does the source give for `Cc1ccc(CNC(=O)Cc2noc3ccccc23)cc1` here?
The Potency was “inactive”.

Which Potency does the source give for `O=C(O)c1ccc(NCc2ccc3c(c2)OCO3)cc1` here?
The Potency was active: 1.26 µM.

For `O=c1oc2ccccc2cc1-c1nc2c(s1)CCCC2`, which Potency is on record?
Its Potency is inconclusive [inhibitor, single point].

For `O=C(CSc1nc2ccccc2[nH]1)c1ccc(Cl)s1`, which Potency is on record?
The Potency was inconclusive [inhibitor, single point].

With `Cn1cnc([N+](=O)[O-])c1Oc1ccc2ccccc2c1` as the molecule, how does the Potency read?
The Potency was inconclusive [inhibitor, single point].

Which Potency does the source give for `Cc1c(C(=O)NN)sc(-c2ccccc2)c1C#N` here?
Its Potency is inconclusive [inhibitor, single point].

Which Potency does the source give for `O=C1CCCN2N=C(SCC(=O)Nc3cccc(C(F)(F)F)c3)SC2=N1` here?
The Potency was inconclusive [inhibitor, single point].
